# Experimental data reported in ChEMBL document CHEMBL4888484, “Replenishing the malaria drug discovery pipeline: Screening and hit evaluation of the MMV Hit Generation Library 1 (HGL1) against asexual blood stage Plasmodium falciparum ,using a nano luciferase reporter read-out” (2022).
# The whole screen tested about 150,000 compounds, of which about 540 (0.36%) showed an effect of 50% or more. The list shows a part of the results.
# Tested on: Plasmodium falciparum
# Test: Primary screen in NF54 nanoGlo assay, in single point, at 2uM, 72h; a lower Z score goes with more inhibition
# Format: functional, Erythrocyte
# Conditions: timepoint 72 hour
SMILES,% Inhibition [%],Z score,% Inhibition (2 µM) [%]
Cc1nc(Nc2ccc(Cl)cn2)sc1C(=O)NCc1ccc(F)cc1F,-1,0.14,–
O=C(CCn1cncn1)Nc1nc2c(s1)CCCCCC2,-1,0.11,–
COc1ccc(-c2noc([C@@H]3CCCN3C3CCOCC3)n2)cc1,1,-0.19,–
CN(CC(F)(F)F)C(=O)Nc1cc(Cl)ccc1Cl,-3,0.48,–
Cc1ccc(C(=O)c2cn(Cc3ccc(N4CCCC4=O)cc3)c3nc(C)ccc3c2=O)c(C)c1,-6,0.76,–
O=c1[nH]c(=O)n(C2CC2)cc1CNC1CCCCCC1,-1,0.17,–
O=C(NC[C@H]1CCN(S(=O)(=O)c2cccs2)C1)N1CC(CC2CC2)C1,-9,1.01,–
CN(CCc1ccncc1)Cc1noc(-c2ccsc2)n1,-9,1.46,–
O=C(Cc1ccc2[nH]ncc2c1)N1Cc2ncccc2N2CCC[C@H]2C1,-7,0.9,–
Cc1nc(C(C)C)cc(N2CCN(Cc3ccc4c(c3)OCO4)CC2)n1,-7,1.34,–
COc1ccccc1C(=O)N(CC(=O)N(Cc1ccco1)C[C@H]1CCCO1)CC(C)C,-9,1.64,–
CC1CCC(C(=O)O)C(C)N1Cc1cccnc1C(F)(F)F (stereo unspecified),-12,1.87,–
CCc1nc(C)c(C(=O)NC(C)(C)CC)s1,-10,1.07,–
CCn1cc(C(=O)N2CCC(Cc3ccc(CO)cc3)CC2)cn1,-9,1.65,–
O=C1CN(S(=O)(=O)c2ccc3ncsc3c2)CN1CC(F)(F)F,-1,0.09,–
CCNC(=O)N(CC(=O)N1CCc2sccc2[C@@H]1COc1cccc(F)c1)CC1CC1,-9,1.69,–
O=C(NC[C@H](O)c1ccc(-c2ccsc2)cc1)c1ccc(Cl)s1,8,-1.06,–
C[C@@H]1CNCCN1S(=O)(=O)c1cccc(Br)c1,-14,2.19,–
COc1ccc(N2CCN(C(=O)Nc3snnc3C(=O)N3CCN(c4ccccn4)CC3)CC2)cc1,4,-0.49,–
CCNC(=O)c1ccccc1NCc1noc2c1COCC2,-14,1.62,–
COc1ccc(C(NC2CCN(C)C2=O)c2ccc(C)cc2)cc1 (stereo unspecified),-8,0.81,–
Cc1cccc(C(=O)Nc2nn(C)c3c2C[C@H](C)C(=O)N3)c1,9,-1.14,–

SMILES,% Inhibition [%],Z score,% Inhibition (2 µM) [%]
Cc1cc(C)n(-c2nc3c(c(=O)n2CC(=O)NCc2ccc4c(c2)OCO4)CCC3)n1,-2,0.25,–
N#CC1(C(=O)Nc2ccc(NC[C@H]3CCCO3)c(F)c2)CCCCC1,-14,1.76,–
CC(C)c1nnc(NCc2csc(-c3ccccn3)n2)s1,-22,4.47,–
c1cc(-c2nc(C3CCOCC3)nn2C[C@H]2COCCO2)n[nH]1,-6,0.79,–
O=c1[nH]nc(CCc2ccccc2)n1Cc1ccccc1F,-10,1.96,–
CN(C)CC(=O)N1CCCC[C@@H]1CCc1ccccn1,-17,2.29,–
c1ccc2c(C(c3c[nH]c4ccccc34)c3c[nH]c4ccccc34)c[nH]c2c1,-27,3.19,–
Cc1ccccc1[C@H](C(=O)O)N1CCC2(CC1)COCCO2,-3,0.53,–
O=C(c1nc(=O)[nH][nH]1)N1CCCC1CC(O)c1ccccc1 (stereo unspecified),-2,0.35,–
C#CCN(CC1CC1)C(=O)CC1(O)CCCCC1,-8,0.86,–
O=C(CCc1ccc(-c2ccccc2)cc1)N[C@@H]1C[C@H]2OCC[C@@H]12,-3,0.61,–
Cc1nc(C)c(C(=O)NC[C@@H](O)Cc2ccc(F)cc2F)s1,-11,1.14,–
Cc1nc(-c2c(C)noc2C)sc1C(=O)N(CC(C)C)C(C)C,3,-0.46,–
Cc1cc2sc(N)nc2cc1-c1cccc(C(=O)N2CC=C[C@@H]2C(C)C)c1,-29,2.6,–
COCc1nc(C)c(CNC(=O)c2cnccn2)s1,-4,0.7,–
CCCNCc1cc(Br)ccc1OCC(N)=O,–,–,-6
Cc1ccc(NC(=O)C2CC2c2ccccc2)cc1NC(=O)C1CC1c1ccccc1 (stereo unspecified),32,-4.17,–
c1cc(N2CCNCC2)ccc1-c1noc(C2CCC2)n1,-12,1.53,–
O=C(COc1ncccn1)N1CCCCC1,-32,2.81,–
COC(OC)C(NC(=O)COCC1CCCO1)c1ccccc1 (stereo unspecified),-17,2.47,–
CC(C)c1cc(NC[C@@H](C(=O)O)c2ccccc2)ncn1,-5,0.96,–
CC(C)c1ccc(S(=O)(=O)Nc2cc(C(=O)NCc3cccnc3)ccc2N2CCNCC2)cc1,5,-0.46,–

SMILES,% Inhibition [%],Z score,% Inhibition (2 µM) [%]
CC(=O)c1cnc(NC(=O)CC2CCCCC2)s1,16,-2.06,–
Cc1ccc(C(=O)N2CCO[C@H](c3cccnc3)C2)s1,-1,0.19,–
Cc1ccc2c(c1)OC1(C)CC2NC(=O)N1Cc1ccc(S(N)(=O)=O)cc1 (stereo unspecified),-6,0.97,–
COc1ccc(Cl)cc1NC(=O)Cc1c(C)nc2nc(-c3ccc(C)cc3)nn2c1C,-8,1.17,–
CN(C)C(N)=NC1CC1c1ccccc1 (stereo unspecified),5,-0.55,–
CC(=O)NC(C)(C)C[C@H](C)NC1(c2ccccc2C)CC1,-7,0.75,–
C[C@H]1CN(C(=O)NCc2ccon2)CCCO1,-18,2.06,–
Cc1cc(CN2CCCC[C@H]2c2noc(C)n2)ccn1,15,-1.89,–
CCN(CC(=O)O)C(=O)C(C)=Cc1ccc(F)cc1,-6,0.75,–
COc1ccc(Cl)cc1-c1ccc(N(C)C)nn1,-5,0.67,–
CN(C)C(=O)CN1C(=O)COc2ccc(C(=O)N3CCN(c4ccc(F)cc4)CC3)cc21,-3,0.4,–
Cc1cc(C)n(C(=O)CCc2c[nH]c3ccccc23)n1,-13,1.51,–
C[C@H](NC(=O)c1ccc(S(C)(=O)=O)cc1)C(C)(C)C,-21,1.89,–
CN1C[C@@H](NC(=O)c2ccccc2NCc2cccnc2)CC1=O,-13,1.12,–
CC1CCN(CCCCNC(=O)c2cc(S(=O)(=O)N(C)C)ccc2N2CCCCC2)CC1,3,-0.25,–
CCOC(=O)c1ccc(C(=O)N2CCN(Cc3ccccc3)CC2)nc1C,-12,1.33,–
COC(=O)N1CCCC[C@H]1C(=O)N1CCc2[nH]c(-c3cccnc3)nc2C1,-1,0.14,–
CCOC(=O)N1CCC2(CC1)N=C(c1ccc3c(c1)OCO3)C[C@@H](c1cccc(OCC)c1O)N2,-8,1.17,–
COc1cc(OC)c(NCc2noc(-c3ccccc3)n2)cc1Cl,-15,1.48,–
OC(CNC(c1cc(F)ccc1F)C1CC1)C(F)(F)F (stereo unspecified),-9,0.94,–
Cc1ncnc(N[C@@H](C)c2ccc(S(C)(=O)=O)cc2)c1C,-3,0.6,–
CN1CC[C@H](Nc2cccc(CN(C)C(=O)C(F)(F)F)c2)C1=O,4,-0.64,–

SMILES,% Inhibition [%],Z score,% Inhibition (2 µM) [%]
COC(=O)C1CCCC1C(=O)NCc1ncc[nH]1 (stereo unspecified),-2,0.28,–
Cc1cc(C(=O)N2CCN3C(=O)CNC(=O)[C@@H]3C2)sc1-c1ccccc1,2,-0.21,–
CCOCCN1CCN(C(=O)c2sc(C)nc2C)C[C@@H]1C,-7,0.89,–
Cc1n[nH]c([C@H]2CCN(Cc3ccccc3C)C[C@H]2N(C)C)n1,-2,0.22,–
Fc1ccc(Cl)c(Cn2nnnc2C2CCOCC2)c1,-9,0.96,–
COc1cccc(C(=O)N[C@@]2(C(F)(F)F)Nc3nc4ccccc4n3C2=O)c1,-2,0.2,–
Cc1csc(NC(=O)c2ccc(NC(=O)CCS(=O)(=O)c3cccs3)cc2)n1,-14,1.55,–
Cc1cccc(CNC(=O)c2cc(Cc3ccccc3)n[nH]2)n1,6,-1.1,–
Cc1cccc(N2CCC(NC(=O)CCCn3nnnc3CN3CCOCC3)CC2)c1,-8,1.05,–
Cc1cc([C@H]2C[C@H]3CC[C@@H](C2)N3C(=O)Cc2c[nH]c(=O)[nH]c2=O)ccc1F,-7,1,–
O=C(NCc1ccncc1)NC1CCCCCCC1,14,-1.9,–
O=c1c2ccccc2nc2c(-c3nc(-c4cccc(C(F)(F)F)c4)no3)cccn12,-7,0.66,–
Cc1cnc(NC(=O)c2oc(C)nc2C)c(Br)c1,7,-0.93,–
CCCCNc1ccc(C(=O)NCC(C)C)c(Cl)c1,-6,0.95,–
Cc1n[nH]c(C)c1CN(C)Cc1cc(C(C)C)on1,-7,1.31,–
CN(C)c1ccc(NC(=O)CCOc2ccccc2)cn1,16,-1.81,–
C[C@@H]1CN(Cc2nnc(C3CC3)n2C)C[C@H](C)N1Cc1nnc(C2CC2)n1C,3,-0.47,–
CC(=O)N1CCO[C@@H](CC(c2ccccc2)c2ccccc2)C1,-13,1.75,–
Cc1ccc(CC(=O)N[C@@H]2C[C@H]2c2ccc(Cl)c(F)c2)cn1,-4,0.53,–
CC(C)c1ncsc1C(=O)N1CCc2ncccc2C1,-5,0.61,–
